Assay results reported in article PMC4336329 (PLoS ONE, 2015).
About 14,000 (4.5%) of roughly 310,000 compounds showed an effect of 50% or more. The effect is printed as a negative number. The list shows a part of the results.

Each compound was assayed against human ether-à-go-go-related gene (hERG) potassium channel (human, UniProt Q12809) (assay: primary screen, population patch clamp on CHO cells stably expressing hERG).
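Also: peak tail current of the secondary pulse compared with the same well before compound.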

Sequence of human ether-à-go-go-related gene (hERG) potassium channel (Q12809 whole entry, looked up): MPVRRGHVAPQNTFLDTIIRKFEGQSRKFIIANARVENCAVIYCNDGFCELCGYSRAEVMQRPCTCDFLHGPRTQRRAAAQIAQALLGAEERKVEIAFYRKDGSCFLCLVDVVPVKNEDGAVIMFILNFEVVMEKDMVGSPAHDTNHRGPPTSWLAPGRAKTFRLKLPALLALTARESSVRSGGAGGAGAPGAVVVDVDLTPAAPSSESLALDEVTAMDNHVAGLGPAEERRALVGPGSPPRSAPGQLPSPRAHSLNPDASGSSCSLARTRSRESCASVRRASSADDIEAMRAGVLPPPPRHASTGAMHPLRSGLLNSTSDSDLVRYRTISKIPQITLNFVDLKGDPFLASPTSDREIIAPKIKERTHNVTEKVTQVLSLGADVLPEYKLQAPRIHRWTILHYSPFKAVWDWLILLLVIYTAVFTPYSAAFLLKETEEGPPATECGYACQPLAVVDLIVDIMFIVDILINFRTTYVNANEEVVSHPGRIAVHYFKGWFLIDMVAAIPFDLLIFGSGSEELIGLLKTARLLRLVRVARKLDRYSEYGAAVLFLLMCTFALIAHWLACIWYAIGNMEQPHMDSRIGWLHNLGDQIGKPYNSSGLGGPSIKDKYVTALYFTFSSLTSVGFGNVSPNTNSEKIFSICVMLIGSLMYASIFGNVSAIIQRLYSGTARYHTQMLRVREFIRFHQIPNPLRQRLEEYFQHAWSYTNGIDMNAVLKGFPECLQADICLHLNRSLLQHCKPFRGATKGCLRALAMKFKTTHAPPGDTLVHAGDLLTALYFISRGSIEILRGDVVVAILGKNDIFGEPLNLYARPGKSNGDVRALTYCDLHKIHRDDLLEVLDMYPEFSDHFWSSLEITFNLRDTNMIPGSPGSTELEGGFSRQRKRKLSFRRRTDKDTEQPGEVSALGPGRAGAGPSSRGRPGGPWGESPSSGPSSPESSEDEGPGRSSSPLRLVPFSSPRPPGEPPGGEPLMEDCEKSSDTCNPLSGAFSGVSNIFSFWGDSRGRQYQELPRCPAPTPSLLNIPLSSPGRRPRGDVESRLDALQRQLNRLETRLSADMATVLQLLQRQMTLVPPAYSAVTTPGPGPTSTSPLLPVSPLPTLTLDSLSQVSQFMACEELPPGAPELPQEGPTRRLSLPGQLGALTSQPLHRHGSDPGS

SMILES	hERG current change (%, negative = inhibition) at 10uM [%]
COc1ccc(CNC(=S)Nc2ccc(Br)cc2)cc1	13.9
CCCOc1ccc(C2CC(=O)Nc3cc(OC)c(OC)cc32)cc1 (centres unmarked)	13.7
CC(C)C(=O)Nc1cccc(C(=O)Nc2nccs2)c1	11.5
CC1(C)NC(=O)N(CC(O)COc2ccc(-c3ccccc3)cc2)C1=O (centres unmarked)	10.2
O=C(CN1CCOCC1)Nc1nc2ccc(Br)cc2s1	-50
O=C1CSC(c2cccc(Cl)c2Cl)N1c1ccccn1 (centres unmarked)	2.52
Nc1ccc(Nc2ccccc2N)cc1	-12.2
CC(=O)Nc1ccc(SCC(=O)OCC(=O)NC(=O)NC2CCCC2)cc1	16.2
CCOCC(=O)Nc1nc(-c2ccccc2)c(CC)s1	-13.8
CC1(C)C[C@H]2C=C(C=O)[C@]3(C=O)C[C@]3(C)[C@H]2C1	-20.1
O=C(CN1C(=O)c2cccc3cccc1c23)NCc1cccnc1	2.05
O=C1c2cccc3cccc(c23)C(=O)N1c1ccc2ncccc2c1	16.9
C/C(=N\NC(=O)c1ccc(Cn2cc([N+](=O)[O-])cn2)o1)c1cccc(NC(=O)C(C)C)c1	-8.21
COc1ccccc1NC1=C(Cl)C(=O)OC1OC(=O)c1ccco1 (centres unmarked)	2
COc1cc(C2C(C#N)=C(N)Oc3c2ccc2ccccc32)ccc1OCC(=O)Nc1ccc(C)cc1 (centres unmarked)	14.9
COc1cc(-c2ccc(NC(=O)NC3CC3)c(OC)c2)ccc1NC(=O)NC1CC1	27.9
CC(=O)/C(=C/Nc1ccc(Oc2ccccc2)cc1)c1ccccc1	5.91
CCOc1cc(C(N)=O)cc(Cl)c1OCc1ccccc1	14.8
Cc1ccc(C(=O)NCC(=O)Nc2ccc(F)c(F)c2F)cc1	25
Cc1c(-c2cc(C(=O)O)no2)cnn1C	32.4
Cc1ccccc1Nc1nc(N)nc(COc2ccc(C#N)cc2)n1	-5.4
CSc1oc(-c2ccco2)nc1S(=O)(=O)c1ccc(F)cc1	-6.22
COc1ccc(-n2c(C)nc3cc(C(=O)O)ccc32)cc1	0.926
O=C(NNC(=O)C1CCCCC1)C(=O)NC1CCCCC1	0.875
O=C(NCC1CCCO1)/C(=C\c1cccs1)NC(=O)c1ccccc1 (centres unmarked)	8.62
COCCCNC(=S)NNC(=O)c1csc2ccccc12	8.78
